# From publication PMC5892938
# This is one part of the list. Construct or isoform of the protein are uncertain.
# Target: GST-SBP-ILF3 (Homo sapiens) (UniProt Q12906)
# Test: targeted RNA Bind-n-Seq
# Conditions: RBNS binding buffer: 25 mM Tris pH 7.5, 150 mM KCl, 3 mM MgCl2, 0.1% Tween, 0.5 mg/mL BSA, 1 mM DTT; 27 nM protein, 750 pM RNA pool; temperature not stated; high values mean tight binding; sequences stand for … in GGGUAAAAGCGAGGUGAA…CGGGACAAGUAUUAUGGG
row,Sequence,binding signal (log2 fold change)
1,UUUUUUUUUUGAGACGGAAUCUGUUUCCAG [tttttgagapaired],0.308
2,UUUUUUUUUUGAGAGGGACUCCCUCUCCUA [tttttgagapaired],0.528
3,UUUUUUUUUUGAGAGUGUAUCAUUCUCCUA [tttttgagapaired],-0.237
4,UUUUUUUUUUGAGACUGGCGCAGUCUCCAG [tttttgagapaired],0.651
5,UUUUUUUUUUGAGAGCGGACCGCUCUUCUA [tttttgagapaired],0.408
6,GUGUGUUGUGUUGGAUUCUAACACAGCACG [gtspaired],-0.667
7,GUGUGUGGUGUUGGACUCUAACACCGCAUA [gtspaired],-0.727
8,GGUGUGUGUGUUGGCCCCUAACACACGCGC [gtspaired],-0.0102
9,GUGGUUGGUGUUGGAAUCUAACACCGACCG [gtspaired],-0.42
10,UUUUUUUUUUGAGAGUGGUCCAUUCUCCGG [tttttgagapaired],0.586
11,UUUUUUUUUUGAGAUGGUAGCUAUCUCCAG [tttttgagapaired],0.441
12,GUGUGGUGUGUUGGCGUCUAACACACUACG [gtspaired],-0.513
13,GGUUGGUGUGUUGGUGCCUAACACAUCAGC [gtspaired],-0.773
14,UUUUUUUUUUGAGACUGCAACAGUCUCCGG [tttttgagapaired],0.329
15,UUUUUUUUUUGAGAUGGAAGCUAUCUCCGG [tttttgagapaired],0.207
16,UUUUUUUUUUGAGACCGGGACGGUCUCCUA [tttttgagapaired],0.655
17,UUUUUUUUUUGAGAGCGACGCGCUCUCCGG [tttttgagapaired],0.314
18,GGUGUGUGUGUUGGACCCUAACACACGCGC [gtspaired],-0.254
19,UUUUUUUUUUGAGAGUGUAACACUCUUCUA [tttttgagapaired],-0.0559
20,UUUUUUUUUUGAGAGGGCAUCCCUCUCCUG [tttttgagapaired],0.607
21,GUGGUUGGUGUUGGCGCCUAACACCGACCA [gtspaired],-0.14
22,UUUUUUUUUUGAGACUGGAACAGUUUCCUA [tttttgagapaired],0.264

row,Sequence,binding signal (log2 fold change)
1,UUUUUUUUUUGAGAGCGUGCCGCUCUCCUA [tttttgagapaired],0.894
2,GUGUGUGGUGUUGGAUCCUAACACCGCGCA [gtspaired],-0.391
3,UUUUUUUUUUGAGACCGAAGCGGUCUCCUA [tttttgagapaired],0.827
4,UUUUUUUUUUGAGAUCGAUCCGAUCUCCUG [tttttgagapaired],0.00429
5,UUUUUUUUUUGAGAGCGACGCGCUCUCCAG [tttttgagapaired],0.333
6,GUGGUGUGUGUUGGCGCCUAACACAUACCA [gtspaired],-0.222
7,GGUGUUGGUGUUGGUCCCUAACACCAAUAC [gtspaired],-0.523
8,UUUUUUUUUUGAGAUGGUUCCCAUCUCCGG [tttttgagapaired],0.284
9,GUGGUUGGUGUUGGCAUCUAACACCGACCG [gtspaired],-0.735
10,GUGUGGUGUGUUGGCCCCUAACACACCGCA [gtspaired],-0.335
11,GGUGGUUGUGUUGGUCCCUAACACAAUCGC [gtspaired],-0.684
12,UUUUUUUUUUGAGAUGGUAUCCAUUUCCAG [tttttgagapaired],0.0634
13,UUUUUUUUUUGAGACGGCUGCCGUCUCCGG [tttttgagapaired],0.818
14,GUGUGGUGUGUUGGCGCCUAACACACCGCG [gtspaired],-0.599
15,GUGUGUGGUGUUGGUCCCUAACACCGCACA [gtspaired],-0.13
16,GUGGUGUGUGUUGGCACCUAACACAUACCA [gtspaired],-0.725
17,GUGGUUGGUGUUGGCACCUAACACCAGCCA [gtspaired],-0.653
18,GUGUGUUGUGUUGGAUCCUAACACAGCGCA [gtspaired],-0.62
19,UUUUUUUUUUGAGACGGAAGCCGUCUCCUG [tttttgagapaired],0.5
20,GUGGUUGGUGUUGGCCUCUAACACCAAUCA [gtspaired],-0.463
21,GUGUGGUGUGUUGGAACCUAACACACUACA [gtspaired],-0.616
22,GUGGUGUGUGUUGGAUUCUAACACAUACCG [gtspaired],-0.682

row,Sequence,binding signal (log2 fold change)
1,UUUUUUUUUUGAGACGGAUUCUGUCUCCUA [tttttgagapaired],-0.00478
2,UUUUUUUUUUGAGAGGGCCGCCCUCUCCUA [tttttgagapaired],0.973
3,UUUUUUUUUUGAGAGGGCAACCCUCUCCGG [tttttgagapaired],0.218
4,UUUUUUUUUUGAGACUGCAUCAGUCUCCAG [tttttgagapaired],0.291
5,UUUUUUUUUUGAGAGCGAUACGUUCUCCGG [tttttgagapaired],0.121
6,GUGGUUGGUGUUGGCAUCUAACACCGACCA [gtspaired],-0.465
7,UUUUUUUUUUGAGACGGCAACCGUUUCCUG [tttttgagapaired],0.593
8,UUUUUUUUUUGAGACGGAGACCGUCUUCUA [tttttgagapaired],0.351
9,UUUUUUUUUUGAGACUGAAACAGUCUCCUA [tttttgagapaired],0.116
10,UUUUUUUUUUGAGACCGAGACGGUCUUCUA [tttttgagapaired],0.354
11,UUUUUUUUUUGAGACGGUUUCCGUUUCCGG [tttttgagapaired],0.589
12,GUGGUGUGUGUUGGUACCUAACACAUACCG [gtspaired],-0.588
13,UUUUUUUUUUGAGAGCGAUACGUUCUCCUG [tttttgagapaired],0.5
14,UUUUUUUUUUGAGAGGGAGACCCUCUCCAG [tttttgagapaired],0.226
15,UUUUUUUUUUGAGAGGGAAGCCCUCUCCAG [tttttgagapaired],0.365
16,GUGGUGUGUGUUGGUCCCUAACACAUACUA [gtspaired],-0.652
17,GUGGUGUGUGUUGGCGUCUAACACACAUCG [gtspaired],-0.682
18,GUGUGGUGUGUUGGCAUCUAACACACUAUA [gtspaired],-0.78
19,GUGUGUUGUGUUGGUGCCUAACACAGCGCA [gtspaired],-0.451
20,UUUUUUUUUUGAGAUGGACGCCAUCUCCUG [tttttgagapaired],0.615
21,UUUUUUUUUUGAGAUGGAUCCCAUCUCCUA [tttttgagapaired],0.0779
22,GGUUGUGGUGUUGGCACCUAACACCGCAGC [gtspaired],-0.429
